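Five concentrations, 48 hours, 96-well plates. GI50: concentration for 50% inhibition of growth. The concentration for full growth arrest is given as TGI.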
Tested on: NCI-H322M lung
Experiment: inhibition of tumour cell growth, NCI panel, 48 h

Row | SMILES | GI50 [µM] | TGI [µM]
1 | OC(COc1ccc(F)cc1)Cn1cnc2c(Cl)ncnc21 (stereo not drawn) | 70.5 | > 100
2 | CC1=CCC2C3(C)CCC2(C(C)C)C1C3 (stereo not drawn) (tested in a mixture with another compound) |  | > 100
3 | COc1ccc(/C=C2\CC(C)CC3C2=NN(C(C)=O)C3c2ccc(OC)cc2)cc1 (stereo not drawn) | 27.1 | > 100
4 | Cc1ccc(N=N/C(=N/NC(=O)c2cc(Cl)ccc2C(=O)c2ccccc2)c2ccc(N(CCC#N)CCC#N)cc2C)cc1 |  | > 100
5 | CCN(CC)CCCC(C)Nc1ccnc2ccc3nn(C)nc3c12 (stereo not drawn) |  | > 100
6 | CCCCc1ccc(Nc2nc(=S)c3[nH]cnc3[nH]2)cc1 |  | 46.8
7 | Nc1ccccc1NC(=O)c1ccc(CCCC(=O)Nc2ccc(C3CC3N)cc2)cc1 (stereo not drawn) | 2.8 | 27.5
8 | S=C(Nc1ccc(Cl)cc1)Nc1ccc(-c2nc3ccccc3o2)cc1 | 15.8 | 75.7
9 | CC1=C(C(=O)NCc2ccccc2)C(c2ccc([N+](=O)[O-])cc2)C(C(=O)NCc2ccccc2)=C(C)N1 |  | 98
10 | COc1ccc(C(=O)C(c2ccc(OC)cc2)C2OC(=O)C(Cl)=C2Cl)cc1 (stereo not drawn) |  | > 100
11 | COc1ccc2c(c1)/C(=C\c1c(C)nc3sc(C)cn13)C(=O)N2 |  | > 100
12 | COc1cc(Nc2ncc(F)c(Nc3ccc4c(n3)NC(=O)C(C)(C)O4)n2)cc(OC)c1OC | 5.85 | > 10
13 | CC#C/C(=N\OC[C@H]1COCCN1)c1ccc2ncnc(Nc3ccc(OCc4cccc(F)c4)c(Cl)c3)c2c1 | 0.227 | 1.75
14 | COc1cc2c(cc1OC)C(OC)N(C)c1c-2ccc2cc3c(cc12)OCO3 (stereo not drawn) |  | 25.5
15 | CCCC(=O)O[C@H]1C=C2C[C@@]34SS[C@]5(CC6=C[C@H](OC(C)=O)[C@@H]7O[C@@H]7[C@H]6N5C3=O)C(=O)N4[C@@H]2[C@H]2O[C@H]21 |  | 0.519
16 | Clc1ccccc1C1=NN(c2ccccc2)C2c3ccccc3OCC12 (stereo not drawn) |  | > 100
17 | COC(C(=O)C(O)C(C)O)C1CC2C=C3C=C(OC4CC(OC5CC(O)C(OC)C(C)O5)C(OC(C)=O)C(C)O4)C(C)C(=O)C3=C(O)C2=C(O)C1OC1CC(OC2CC(OC3CC(C)(O)C(OC(=O)C(C)C)C(C)O3)C(O)C(C)O2)C(O)C(C)O1 (stereo not drawn) |  | < 0.01
18 | CC(C)(C)OC(=O)N(O)CCCn1cnc2c(N)ncnc21 |  | > 100
19 | COC(=O)Nc1nc2ccc(C(=O)c3ccc(N(C)C4COC4)cc3)cc2[nH]1 | 0.65 | > 100
20 | CCOC(=O)C(=O)Nc1ccc(Cl)cc1C |  | > 100
21 | COC(=O)c1cccc(N[C@@H]2c3cc4c(cc3C(c3cc(OC)c(O)c(OC)c3)[C@H]3C(=O)OCC32)OCO4)c1 (stereo partly drawn) |  | > 100
22 | CN1C(=O)[C@@H](NC(=O)[C@H](CCC(F)(F)F)[C@H](CCC(F)(F)F)C(N)=O)N=C(c2ccccc2)c2ccccc21 | > 100 | > 100
23 | N#CC(C#N)N=Nc1ccc(Br)cc1 | 41.6 | > 100

Row | SMILES | GI50 [µM] | TGI [µM]
24 | O=C(O)CS |  | > 100
25 | Cc1nc([C@H]2CC[C@H]3[C@@H]4CCC5=CC(=O)CC[C@]5(C)[C@H]4CC[C@]23C)cs1 | > 95.9 | > 100
26 | CC(=O)O[C@@H]1[C@@H](O)C2=C3[C@]4(C)[C@@H]1C(C)(C)C(=O)C[C@@H]4[C@]3(O)[C@H](OC(C)=O)[C@@]1(C[C@@H]1C)C2=O |  | 32.6
27 | COc1cc(O)c2c(c1)C(=O)C=C(Cl)C2=O |  | > 100
28 | O=[N+]([O-])/C=C/c1cc2ccccc2[nH]1 |  | 31.1
29 | O=C(/C=N/O)Nc1cc(Cl)c(Cl)cc1Cl |  | > 100
30 | O=C(/C=C/C=C/c1c(C2CC2)nc2ccccc2c1-c1ccc(F)cc1)c1cccs1 | 3.76 | > 100
31 | CCCCSC1=N/C(=C\c2ccc(N(C)C)cc2)C(NN)=N1 |  | > 100
32 | O/N=C1/C(=C/c2ccc(Oc3ccccc3)cc2)CCCC1C(NO)c1ccc(Oc2ccccc2)cc1 (stereo not drawn) |  | > 100
33 | C=C1c2[nH]c3ccccc3c2C2C(CC)C1CCN2C (stereo not drawn) |  | > 100
34 | O=C(C[n+]1ccccc1)N/N=C(\Cc1nc2ccc([N+](=O)[O-])cc2[nH]c1=O)C(=O)Nc1cc(Cl)c(Cl)cc1Cl |  | > 100
35 | COC1=CC23CCCN2CCc2cc4c(cc2C3C1O)OCO4 (stereo not drawn) |  | > 100
36 | CC1(C)OB(O)OC1(C)C |  | > 100
37 | O=C(N/N=C/c1ccc([N+](=O)[O-])o1)c1ccc(C(=O)N/N=C/c2ccc([N+](=O)[O-])o2)cc1 |  | > 100
38 | CC(C)(C)c1cc2c(O)c(c1)Cc1cc(C(C#N)(Cc3ccc4ccccc4c3)Cc3ccc4ccccc4c3)cc(c1O)Cc1cc(C(C)(C)C)cc(c1O)Cc1cc(C(C#N)(Cc3ccc4ccccc4c3)Cc3ccc4ccccc4c3)cc(c1O)C2 |  | > 100
39 | CN(C)/N=C(/c1nc2ccc([N+](=O)[O-])cc2[nH]c1=O)C(O)c1ccco1 (stereo not drawn) |  | > 100
40 | O=C(c1ccccc1)c1oc2ccc(Br)cc2c1-c1cnn(-c2ccccc2)c1 |  | > 100
41 | NC(=O)NC(=O)c1cccc(CNc2ccc(C(=O)N[C@@H](CCC(=O)O)C(=O)O)cc2)n1 |  | > 100
42 | C=C(C)CC1(O)C(=O)C(OCC)=C1OCC (stereo not drawn) |  | > 100
43 | O=C(Nc1cc2c(=O)oc3ccccc3c2oc1=O)c1cccnc1 |  | > 100
44 | CCOC(=O)Cc1csc2[n+]1C(=O)/C(=C/c1cccc(OC)c1O)S2 |  | > 100
45 | OC[C@]1(n2nc3ccccc3n2)OC[C@@H]1c1ccccc1 |  | > 100
46 | C[C@@H]1Cc2c([nH]c3ccccc23)[C@@H](c2c(F)cc(NC3CN(CCCF)C3)cc2F)N1CC(F)(F)CO | 10.3 | 22.4
